The data set concerns cell line panel including leukemia, ovarian, lung, and breast carcinoma cells. Put plainly: Cytotoxicity (XTT, 72 hours) against cell line panel. Conditions: 2 versus taxol. On the technique in general: Tetrazolium dyes change colour on reduction, which living cells bring about.

Molecules are shown by their SMILES.

As to `CC(=O)O[C@H]1C(=O)[C@@]2(C)[C@H]([C@H](OC(=O)c3ccccc3)[C@]3(O)C[C@H](OC(=O)[C@H](Oc4cccc[n+]4C)[C@@H](NC(=O)c4ccccc4)c4ccccc4)C(C)=C1C3(C)C)[C@]1(OC(C)=O)CO[C@@H]1C[C@@H]2O` [taxol-2'-MPT], the differential cytotoxicity profiles result was “similar, although some differences were noted”. For `CC(=O)O[C@H]1C(=O)[C@@]2(C)[C@H]([C@H](OC(=O)c3ccccc3)[C@]3(O)C[C@H](OC(=O)[C@H](O)[C@@H](NC(=O)c4ccccc4)c4ccccc4)C(C)=C1C3(C)C)[C@]1(OC(C)=O)CO[C@@H]1C[C@@H]2O` [taxol, reference compound] the value was “similar, although some differences were noted”.

The values above are taken from US6252094A (The Scripps Research Institute, priority 1999, dated 2001).
